Experimental findings from PubChem BioAssay (NCI) are described below.

The structures appear in SMILES notation. Several values for one entry are separate records, joined by “and”; a condition that tells them apart may be missing. Equal values may be shown once.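 Interpolation was linear, between the two tested concentrations surrounding the appropriate level; five concentrations were tested over 48 hours in 96-well plates. Abbreviation: GI50, concentration required for 50% inhibition of growth. TGI: total growth inhibition.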 Some results are limits rather than exact numbers.

The test system of the test is NCI-H322M lung. Kind of test: NCI anticancer screen, dose series, 48 h.
Regarding `Cc1cccc(-c2nc(Nc3cccc(S(N)(=O)=O)c3)c3ccccc3n2)c1`, the GI50 is greater than 100 µM and the TGI is greater than 100 µM.

For `CC(C)C[C@H](NC(=O)[C@@H]1CCCCCCCCCCC(=O)N[C@@H](CC(=O)N2CCC[C@@H]2C2CCCC2)C(=O)N1)B(O)O`, the GI50 was 0.0145 µM and 0.0168 µM; the TGI was 0.0369 µM and 0.115 µM.

For the compound `O=C(NO)c1ccc(CN2CCN(c3nc(-c4ccccc4)c4ccccc4n3)CC2)cc1`, the GI50 was 6.73 µM and the TGI is greater than 23.7 µM.

On to `Brc1ccc(N/N=C/c2c[nH]c3ccccc23)nc1`, for which the GI50 is greater than 100 µM and the TGI is greater than 100 µM.

For the compound `O=C1Nc2cc(Cl)ccc2/C1=C/c1ccc(OCc2ccc(Br)cc2F)cc1`, the GI50 was 4.43 µM and the TGI was 19.3 µM.
